The full ranking holds about 33,000 sequences; the median of “E-score (-0.5 to 0.5)” is about -0.04, and the highest 2% start at about 0.36. The list shows a part of the results.
biological target: T1, Hmlalpha2 (UniProt P0CY09); test: PBM E-score (8-mer binding enrichment) (E-score (-0.5 to 0.5)); higher = stronger / more preferred TF binding; most listed sequences are background and not binding sites; conditions: protein concentration: 200 nM; construct: GST-full length
T1 sequence: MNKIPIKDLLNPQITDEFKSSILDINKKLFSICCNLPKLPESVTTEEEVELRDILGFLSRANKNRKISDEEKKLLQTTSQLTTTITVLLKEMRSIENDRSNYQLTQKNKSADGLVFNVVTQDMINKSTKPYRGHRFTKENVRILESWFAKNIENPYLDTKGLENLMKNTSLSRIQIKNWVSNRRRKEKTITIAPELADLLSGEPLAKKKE
How it was run: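 Universal all-10-mer Agilent arrays, fresh or stripped once, were converted to double-stranded form by primer extension. GST-tagged yeast transcription factors from PURExpress in vitro transcription/translation, full-length or DNA-binding domain only, were applied at about 100-200 nM and detected with fluorescent anti-GST. After masliner normalisation, the Universal PBM Analysis Suite scored each ungapped eight-base word together with its reverse complement by E-score.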

| Sequence | PBM E-score |
| --- | --- |
| ATACTCAC | 0.0554 |
| GAGTAAGC | -0.118 |
| GATTAGAC | -0.0255 |
| GCACATGC | 0.0131 |
| GGTGCTAC | -0.177 |
| AGCGGACC | -0.255 |
| CCGGATTA | 0.0175 |
| AACTGCCG | -0.0627 |
| CCGAGACG | -0.0875 |
| CGCAAGAA | -0.00151 |
| ATCGTATC | -0.107 |
| GCAAGAAA | -0.0824 |
| AATACCGG | 0.0697 |
| AGTCCTTG | -0.118 |
| GGACGGAC | -0.412 |
| GATGGCAA | -0.0428 |
| TAAAGCTA | 0.192 |
| AGTGCCCA | -0.163 |
| CGCCGCTA | -0.273 |
| AACGGTCA | -0.185 |
| GCAGGGCC | -0.165 |
| CGACTTTC | -0.111 |
| GCACAGTA | -0.0102 |
| CATGGGAC | 0.0132 |
| CTCACTAA | -0.126 |

| Sequence | PBM E-score |
| --- | --- |
| GCCAGATA | -0.172 |
| CTAATATC | -0.0301 |
| ACCATCAA | -0.00346 |
| CCGTCAGC | -0.226 |
| CCTATAGC | -0.142 |
| ACGTCATA | 0.094 |
| AGCGCATA | 0.105 |
| AACTGCCA | -0.196 |
| CCTTCGGA | -0.133 |
| CGCTCAGA | -0.0483 |
| ATCCCACG | -0.226 |
| AGCATACG | -0.0437 |
| CTTAGGTC | -0.22 |
| ATTGTGAG | -0.0479 |
| AATAGACG | -0.103 |
| CCTCGCAG | -0.223 |
| ACGCCAAT | 0.0502 |
| CCCTCATC | -0.231 |
| CTGTAAAG | 0.244 |
| CATGCGAA | 0.0661 |
| CAGTCCGA | -0.0596 |
| CCGTGGAG | -0.308 |
| CCTGCCCA | -0.182 |
| CAGGCCGG | -0.0707 |
| ACGAAATA | 0.171 |

| Sequence | PBM E-score |
| --- | --- |
| GCCGTACC | -0.16 |
| AAGGCGTC | -0.0484 |
| TAGATACA | 0.269 |
| AACCACAG | -0.139 |
| ACCATGCC | 0.0244 |
| GTCGAGGA | -0.211 |
| CAAGAGAG | -0.0803 |
| GAAATATA | 0.236 |
| CAGTCAGG | -0.17 |
| CGCCTGTC | -0.216 |
| ATCGTCAG | -0.212 |
| CTACTGCA | 0.0655 |
| ATCACTGA | -0.0034 |
| CTTCATCC | -0.306 |
| AGAATCAT | 0.0275 |
| CTCGAGCA | -0.0482 |
| ACAAGTGC | -0.0122 |
| CGGCCTTA | -0.103 |
| AGCGATGC | -0.151 |
| GCGTGGCC | -0.12 |
| ATTGGTAA | 0.0204 |
| AACACCCT | 0.0799 |
| ACAGATGA | 0.0954 |
| ACGGGGAA | -0.0619 |
| AAACCAGA | 0.0147 |

| Sequence | PBM E-score |
| --- | --- |
| GGACTGAA | -0.0654 |
| CCAGTGTC | 0.0183 |
| ACGGAATG | -0.0891 |
| ACACCTAA | 0.0834 |
| AGCGGTTC | -0.0786 |
| GCAAACTA | 0.141 |
| CAGAAACA | 0.194 |
| AATCCGAT | 0.0513 |
| CCTAACCG | -0.218 |
| ATCTCTGA | -0.0796 |
| AAACCGAC | -0.0766 |
| GCTCTTCC | -0.169 |
| CAAAACGG | 0.113 |
| ACTTGAAG | 0.0783 |
| ACACTGAG | -0.00329 |
| CGTGCCGC | -0.0214 |
| ATTCATCG | 0.0389 |
| TCATAAAA | -0.00506 |
| AAGCCCTC | -0.138 |
| CTAAATGA | -0.0333 |
| CCGCGGGC | -0.255 |
| ATCAAGCC | 0.066 |
| ACACATAC | 0.36 |
| AAAGTGGT | -0.157 |
| GGGAATAC | 0.292 |

| Sequence | PBM E-score |
| --- | --- |
| GGTCAGTA | -0.15 |
| GGATGCCA | -0.182 |
| TAGCACTA | -0.0956 |
| CCACTTGA | -0.0791 |
| ACAGTCTA | 0.044 |
| GCTATTAC | 0.247 |
| ACCAACCT | -0.00445 |
| ATCCCCCG | -0.227 |
| CTAAACAA | 0.0668 |
| CGTTAATC | 0.248 |
| CGAGGGGA | -0.172 |
| AGGTAAAT | 0.24 |
| CGGGGCTC | -0.354 |
| GGTGATAA | -0.171 |
| GAACCGAA | 0.0771 |
| AAATCCGG | -0.18 |
| GGGAAACC | 0.0275 |
| ACAGCGCT | 0.08 |
| GGAGCAAC | -0.0607 |
| CATCACCC | -0.33 |
| AAGTTGAC | 0.115 |
| CAAAAGCA | 0.122 |
| AGCGAAGC | -0.0905 |
| GTGAAAAC | 0.056 |
| CAGGAAAC | -0.00342 |

| Sequence | PBM E-score |
| --- | --- |
| AACTTACG | 0.295 |
| TTAATCAA | 0.266 |
| CCGAGACC | -0.141 |
| GTACTATA | 0.178 |
| CTTGTTCC | -0.0361 |
| CATTGTAG | 0.104 |
| GAACACTA | 0.0328 |
| ATTGTTTA | 0.268 |
| ACGACCTC | -0.0124 |
| AGGTATTG | 0.131 |
| ATATACAT | 0.435 |
| CCTCCAGC | -0.4 |
| GAAACTAC | 0.174 |
| CGTGTCAG | 0.273 |
| AAATTCCT | -0.135 |
| CTGTGAAA | 0.153 |
| ATAGTTCG | 0.0279 |
| ACGCACGA | 0.277 |
| CAGGCTAG | -0.333 |
| ATAGTAAC | 0.171 |
| GGACGCAA | -0.265 |
| ATGCGTCC | -0.158 |
| ACAGTCAA | 0.0515 |
| TCAAAGCA | 0.0358 |
| AACACAAA | 0.261 |

| Sequence | PBM E-score |
| --- | --- |
| CATTGTCG | 0.0807 |
| ACGTTACT | 0.174 |
| AGAGTAAA | 0.17 |
| GCGAGCTA | -0.0464 |
| CGTGCCCC | -0.0767 |
| CGCTACGA | -0.117 |
| CTGTGTGC | -0.0664 |
| CTCGAACC | -0.106 |
| CACAGGAG | 0.0451 |
| TAACAGTA | 0.172 |
| AGGCCCAG | -0.212 |
| GATAGCCA | -0.212 |
| CATGCTAC | 0.101 |
| CCCGACCC | -0.224 |
| ACTATATA | 0.146 |
| ACCGACAG | -0.252 |
| ACCGAGTC | -0.158 |
| CTGATAAA | 0.056 |
| AGTTGAGA | -0.13 |
| GCTTGCTA | -0.165 |
| CGTCAGTC | -0.109 |
| GGCGCCAA | -0.0737 |

Source: the supplement of paper PMC3334620
